# Experimental data as given in the supplement of paper PMC4967469.
# The IC50 comes from the fitted curve, where viability falls to half of the control; a limit (>, <) means that the fit lies beyond the doses tested. For AUC the same curve is integrated over the 256-fold range of doses and scaled to a fraction; the more sensitive the line, the further below 1. A top dose marked as inferred comes from the curve model; the source does not state it.
# Compound: CC1=C(C(=O)Nc2cc3cn[nH]c3cc2F)C(c2ccc(C(F)(F)F)cc2)CC(=O)N1 [GSK429286A]
# Test: Viability of human cancer cell lines after 72 h of drug (GDSC screen)
# Details: top dose inferred
# Method: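 Human cancer cell lines in 384-well plates, medium with 10% serum, drug for 72 h over a 256-fold dose range (nine 2-fold or five 4-fold steps up to the top dose). Adherent lines were fixed and stained with the nucleic acid dye Syto60, suspension lines read with resazurin; signal relative to control wells, capped at 0 and 100%. One two-parameter sigmoid per drug and line, fitted in a mixed model over all curves with the slope shared within a line.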
Cell Line,AUC,IC50 [µM]
"U-2-OS (osteosarcoma, adherent, top dose 20 µM)",0.986,> 20
"HPAC (pancreas, adherent, top dose 20 µM)",0.977,> 20
"ACHN (kidney, adherent, top dose 20 µM)",0.969,> 20
"NB(TU)1-10 (neuroblastoma, adherent, top dose 20 µM)",0.993,> 20
"RXF393 (kidney, adherent, top dose 20 µM)",0.876,> 20
"NCI-H460 (large cell lung carcinoma, adherent, top dose 20 µM)",0.99,> 20
"MFE-296 (endometrium, adherent, top dose 20 µM)",0.982,> 20
"SK-MM-2 (myeloma, suspension, top dose 20 µM)",0.946,> 20
"T-24 (bladder, adherent, top dose 20 µM)",0.964,> 20
"SF126 (glioma, adherent, top dose 20 µM)",0.96,> 20
"NCI-H2291 (lung adenocarcinoma, adherent, top dose 20 µM)",0.981,> 20
"COR-L303 (small cell lung carcinoma, suspension, top dose 20 µM)",0.949,> 20
"EVSA-T (breast, adherent, top dose 20 µM)",0.991,> 20
"OACp4C (oesophagus, adherent, top dose 20 µM)",0.87,> 20
"EW-18 (Ewing sarcoma, suspension, top dose 20 µM)",0.896,> 20
"T84 (large intestine, adherent, top dose 20 µM)",0.982,> 20
"MY-M12 (leukaemia, suspension, top dose 20 µM)",0.683,4.36
"CHSA0108 (chondrosarcoma, adherent, top dose 20 µM)",0.582,2.18
"GMS-10 (glioma, adherent, top dose 20 µM)",0.984,> 20
"SF295 (glioma, adherent, top dose 20 µM)",0.959,> 20
"SNU-C5 (large intestine, adherent, top dose 20 µM)",0.973,> 20

Cell Line,AUC,IC50 [µM]
"HTC-C3 (thyroid, adherent, top dose 20 µM)",0.913,> 20
"H2818 (mesothelioma, adherent, top dose 20 µM)",0.974,> 20
"no-11 (glioma, adherent, top dose 20 µM)",0.944,> 20
"SK-CO-1 (large intestine, adherent, top dose 20 µM)",0.97,> 20
"SW1271 (small cell lung carcinoma, adherent, top dose 20 µM)",0.866,> 20
"C-33-A (cervix, adherent, top dose 20 µM)",0.946,> 20
"COLO-800 (melanoma, adherent, top dose 20 µM)",0.978,> 20
"D-283MED (medulloblastoma, adherent, top dose 20 µM)",0.991,> 20
"Daudi (Burkitt lymphoma, suspension, top dose 20 µM)",0.953,> 20
"MDA-MB-175-VII (breast, adherent, top dose 20 µM)",0.988,> 20
"RERF-LC-Sq1 (lung squamous cell carcinoma, adherent, top dose 20 µM)",0.946,> 20
"TE-10 (oesophagus, adherent, top dose 20 µM)",0.981,> 20
"KYSE-50 (oesophagus, adherent, top dose 20 µM)",0.974,> 20
"SUP-T1 (T-cell lymphoblastic leukaemia, suspension, top dose 20 µM)",0.933,> 20
"HCC1806 (breast, adherent, top dose 20 µM)",0.988,> 20
"MRK-nu-1 (breast, suspension, top dose 20 µM)",0.99,> 20
"RH-18 (rhabdomyosarcoma, adherent, top dose 20 µM)",0.978,> 20
"NCI-H226 (lung squamous cell carcinoma, adherent, top dose 20 µM)",0.951,> 20
"MOLM-13 (acute myeloid leukaemia, suspension, top dose 20 µM)",0.837,12.2
"NCI-H1694 (small cell lung carcinoma, suspension, top dose 20 µM)",0.985,> 20
